# Measurements reported in PubChem BioAssay AID588795 (National Center for Advancing Translational Sciences (NCATS), 2011).
# Among all 390,000 compounds or so, about 1,400 (0.36%) were called active. Inconclusive means that the source gave no clear call. Such entries were picked first, then a sample of the others. The call rests on the fitted dose curve; in most records, active means well fitted inhibition curve with a large enough effect; inconclusive means small, poorly fitted or top-dose-only effect; inactive means no such curve, though single readings can be large or run the other way. Potencies of inconclusive entries are doubtful fits and often do not repeat.
# Target: Flap endonuclease 1 (Homo sapiens) (UniProt P39748)
# Experiment: qHTS Assay for the Inhibitors of Human Flap endonuclease 1 (FEN1). Further: nearly all actives have a fitted effect of over 65% in size.
# Conditions: Recombinant FEN1 flap cleavage, fluorescence, 15 min; series mostly up to 114 µM
# Summary of the method: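 In this screen, 50 nM flap DNA substrate was added to 10 nM FEN1 pretreated with compound for 15 min at room temperature; cleavage was followed with reads at 0 and 15 min, and Hill fitting gave concentration–response parameters.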
# Potency means the concentration at half of the fitted maximal effect; tags describe the fitted curve by direction and shape.
# Sequence of UniProt P39748 (P39748 whole entry, looked up): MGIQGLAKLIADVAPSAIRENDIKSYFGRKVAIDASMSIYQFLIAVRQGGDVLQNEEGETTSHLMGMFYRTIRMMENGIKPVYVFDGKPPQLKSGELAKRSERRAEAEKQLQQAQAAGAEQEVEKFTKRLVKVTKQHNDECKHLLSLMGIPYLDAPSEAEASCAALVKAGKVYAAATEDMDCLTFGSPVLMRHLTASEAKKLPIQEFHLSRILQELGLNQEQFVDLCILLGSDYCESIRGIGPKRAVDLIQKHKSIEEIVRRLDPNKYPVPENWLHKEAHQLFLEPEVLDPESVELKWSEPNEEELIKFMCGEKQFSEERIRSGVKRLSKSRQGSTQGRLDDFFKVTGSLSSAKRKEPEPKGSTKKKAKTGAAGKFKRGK
row,Compound,Potency
1,CCn1cc(C(=O)O)c(=O)c2cc(F)c(N3CCNC(C)C3)c(F)c21 (configuration not stated),"inconclusive: 18.9 µM [inhibitor, partial curve, poor fit]"
2,CC1=C(C(=O)Nc2ccccc2)C(c2ccc[nH]2)n2ncnc2N1 (configuration not stated),"inconclusive: 56.2 µM [inhibitor, partial curve, poor fit]"
3,O=C1CC(c2ccccc2)Cc2[nH]c(=O)c(C(=O)O)cc21 (configuration not stated),inactive
4,O=C(O)c1ccc(-n2cccc2/C=C2/SC(=O)N(CC(=O)N3CCCC3)C2=O)cc1,active: 39.8 µM
5,COc1ccc(C2=CC3=C(Br)C(=O)C(C)(OC(=O)c4ccc(Cl)nc4)C(=O)C3=CO2)cc1 (configuration not stated),"inconclusive: 44.7 µM [inhibitor, partial curve]"
6,Cc1cccc(NC(=O)COC(=O)c2ccc([N+](=O)[O-])o2)c1C,"inconclusive: 17.8 µM [inhibitor, full curve]"
7,COc1ccc(CNC(=O)C2=CC(c3cccc(OC)c3)=NS(=O)(=O)N2C)cc1,"inconclusive: 50.1 µM [inhibitor, partial curve]"
8,COc1ccc(S(=O)(=O)Nc2ccc3ccccc3c2)cc1C,"inconclusive: 100 µM [inhibitor, partial curve, poor fit]"
9,Cc1cccc(N2CCN(C(=O)c3ccc4c(Cl)c5c(nc4c3)CCCC5)CC2)c1C,inactive
10,COc1cc(/C=C2/C(=N)N3N=C(CC(=O)N4CCOCC4)SC3=NC2=O)ccc1OC(C)c1ccccc1 (configuration not stated),inactive
11,O=C(/C=C/c1ccc(O)c(O)c1)NC(=O)c1ccccc1O,"inconclusive: 44.7 µM [inhibitor, partial curve, poor fit]"
12,Cc1cccc(NC(=O)C2CCN(S(=O)(=O)c3ccc(F)cc3)CC2)c1C,inactive
13,CCN(CC)CC(C)CNC(=O)c1cc(-c2ccc(Br)s2)nc2ccccc12 (configuration not stated),"inconclusive: 39.8 µM [inhibitor, partial curve, poor fit]"
14,CN1C(=O)N(C)c2ccc(C=O)c3cccc1c23,inactive
15,COc1cccc(-c2nc(NCC3CCCO3)c3ccccc3n2)c1O (configuration not stated),"inconclusive: 44.7 µM [inhibitor, partial curve, poor fit]"
16,NC(=O)c1sc2nc3c(c(-c4ccc(Cl)cc4)c2c1N)CCCC3,"inconclusive: 89.1 µM [inhibitor, partial curve, poor fit]"
17,CC(=O)c1ccc(N2CCN(S(=O)(=O)c3ccc4c5c3CC(=O)N5CC(C)S4)CC2)cc1 (configuration not stated),"inconclusive: 28.2 µM [inhibitor, single point]"
18,Cc1ccc2nc(-c3ccccc3F)c(Nc3ccc(Cl)cc3)n2c1,inactive
19,COc1cccc(-n2c(=O)c3c4c(sc3n(Cc3ccc(C)cc3)c2=O)CCCC4)c1,"inconclusive: 100 µM [inhibitor, single point]"
20,COc1ccc(-c2nc(CSCC(=O)N3CCN(c4cccc(C)c4C)CC3)c(C)o2)cc1OC,"inconclusive: 79.4 µM [inhibitor, partial curve, poor fit]"
21,O=C(C[N+]12CN3CN(CN(C3)C1)C2)c1ccc(O)c(O)c1,active: 14.1 µM

row,Compound,Potency
1,CC(C)N(C(=O)CSc1nnc(CN2CCCCCC2=O)n1-c1ccccn1)C(C)C,"inconclusive: 100 µM [inhibitor, single point]"
2,O=C(CS(=O)(=O)c1cccc2nsnc12)Nc1ccccc1,inactive
3,O=C(c1ccccc1F)c1cc2c(cc1[N+](=O)[O-])OCCO2,"inconclusive: 39.8 µM [inhibitor, partial curve, poor fit]"
4,Fc1ccccc1-c1ccc(/C=N/Nc2nc3ccccc3[nH]2)o1,inactive
5,O=C(O)c1ccc(N2C(=O)Nc3ccccc3N2O)cc1,"inconclusive: 100 µM [inhibitor, single point]"
6,COc1ccc(/C=C2/C(=O)N(c3ccccc3)N=C2C)c(OC)c1,"inconclusive: 25.1 µM [inhibitor, full curve, poor fit]"
7,Nc1c(C(=O)OCC(=O)Nc2cccc([N+](=O)[O-])c2)[nH]c(=O)[nH]c1=O,"inconclusive: 56.2 µM [inhibitor, partial curve, poor fit]"
8,CCOC(=O)c1[nH]c(C)c(CCC(=O)NCc2ccc(N(C)C)cc2)c1C,inactive
9,O=C(Nc1cc(-c2nc3ccccc3s2)ccc1Cl)c1cc2ccccc2o1,"inconclusive: 89.1 µM [inhibitor, single point]"
10,C/C(=N\Nc1nc2ccccc2c(=O)n1O)c1ccco1,"inconclusive: 28.2 µM [inhibitor, partial curve]"
11,Cc1cc(C)c2oc(C(=O)Nc3ccc(S(=O)(=O)N4CCCCC4)cc3)cc(=O)c2c1,inactive
12,Cc1ccc(-c2nc3sc(CCNS(=O)(=O)c4cc(F)ccc4F)c(C)n3n2)cc1,"inconclusive: 28.2 µM [inhibitor, partial curve, poor fit]"
13,O=C(O)CCN1CC2([N+](=O)[O-])CC=C(OCCO)C([N+](=O)[O-])(C1)C2 (configuration not stated),inactive
14,COc1cccc(NS(=O)(=O)c2ccc3c(c2)C2C=CCC2C(c2ccc(C(=O)O)cc2)N3)c1 (configuration not stated),active: 35.5 µM
15,Oc1ccc(/C=N/NC(=S)N/N=C/c2ccc(O)cc2)cc1,"inconclusive: 70.8 µM [inhibitor, partial curve, poor fit]"
16,CCCSC(=S)NC1CCS(=O)(=O)C1 (configuration not stated),"inconclusive: 0.178 µM [inhibitor, full curve]"
17,C1NNCC12CNNC2,inactive
18,CCOC(=O)C1(CCOc2ccccc2)CCN(Cc2ccc(C#CCCO)cc2)CC1,"inconclusive: 70.8 µM [inhibitor, partial curve, poor fit]"
19,COc1ccc(C2c3cc(OC)c(OC)cc3CCN2C(=O)c2ccccc2Br)cc1OC (configuration not stated),"inconclusive: 28.2 µM [inhibitor, partial curve, poor fit]"
20,CCc1ccc(Oc2c(C(F)(F)F)oc3c(CN4CCC(C)CC4)c(O)ccc3c2=O)cc1,inactive
21,COc1cc(-c2cc(OC)c3c(C)oc(C)c3c(=O)c2)ccc1O,"inconclusive: 39.8 µM [inhibitor, partial curve, poor fit]"
